The full ranking holds about 33,000 sequences; the median of “E-score (-0.5 to 0.5)” is about -0.013, and the highest 2% start at about 0.3. The list shows a part of the results.
Biological target: T1, Msn1 (UniProt P22148)
T1 sequence: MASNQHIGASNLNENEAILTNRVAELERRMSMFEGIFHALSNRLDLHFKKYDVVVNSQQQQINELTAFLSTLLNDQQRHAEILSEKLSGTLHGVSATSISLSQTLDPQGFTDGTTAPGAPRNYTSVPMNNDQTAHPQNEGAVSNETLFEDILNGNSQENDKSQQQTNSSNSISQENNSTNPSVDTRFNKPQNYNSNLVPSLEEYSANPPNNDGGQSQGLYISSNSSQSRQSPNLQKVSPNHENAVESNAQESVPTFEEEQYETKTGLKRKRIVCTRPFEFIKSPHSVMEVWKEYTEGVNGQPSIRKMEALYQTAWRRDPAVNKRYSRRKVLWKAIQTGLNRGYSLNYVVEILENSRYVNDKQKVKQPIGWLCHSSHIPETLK
Assay: PBM E-score (8-mer binding enrichment) (E-score (-0.5 to 0.5)); higher = stronger / more preferred TF binding; most listed sequences are background and not binding sites
Conditions: protein concentration: 200 nM; construct: GST-full length
In short: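 Yeast transcription factors carrying a GST tag, as full-length proteins or DNA-binding domains, were produced by PURExpress in vitro transcription/translation. About 100-200 nM protein was applied to universal all-10-mer Agilent arrays, double-stranded by primer extension on fresh or once-stripped slides. Bound protein was detected with fluorescent anti-GST, and scans were normalised with masliner. The Universal PBM Analysis Suite gave each ungapped eight-base word, pooled with its reverse complement, an E-score, a modified Wilcoxon-Mann-Whitney statistic.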

Row | Sequence | PBM E-score
1 | ACAGCGAT | -0.1
2 | AGTCGCGC | 0.191
3 | CCACTCGG | -0.112
4 | TATACGCA | 0.0336
5 | CCGATGAC | 0.102
6 | CTGATGCA | -0.0911
7 | ATGAATCC | 0.124
8 | GCATTCCA | -0.224
9 | AAAACTAA | 0.251
10 | ATGGTGAA | -0.0757
11 | CGCGAAAC | 0.0633
12 | CGTACGTA | -0.141
13 | AGCGCAGA | -0.035
14 | AATATCGA | 0.145
15 | GTTAAGTA | 0.0893
16 | CGCATCCC | -0.229
17 | CTCATATA | 0.0148
18 | AAACTATT | 0.171
19 | GATCCGGC | -0.0512
20 | ACGGGCCT | -0.271
21 | CACGGGAG | -0.247
22 | CAGCCGAA | -0.0187
23 | CGCCGGTA | -8e-05
24 | CGGTGTGC | -0.248
25 | ACGGCTTG | -0.0549

Row | Sequence | PBM E-score
26 | ATTCCTAG | 0.133
27 | GGTTGAGA | -0.0154
28 | TAAAAAAA | 0.206
29 | ACTGTACA | -0.0175
30 | CACGCCGC | -0.234
31 | CGCCGACA | 0.0624
32 | AGCGTGTC | 0.0384
33 | ACTTCTAC | 0.0998
34 | TATCTGGA | 0.0791
35 | AACGTGAG | -0.0307
36 | AAGGCAGG | -0.208
37 | CTATATAA | 0.153
38 | CAGCCAAC | -0.203
39 | CGGACCCA | -0.199
40 | CAGAACTG | 0.0993
41 | AATATTCT | 0.113
42 | AGCGGTAT | 0.102
43 | AGGTCAAT | -0.00203
44 | GTGCATCA | 0.0556
45 | GGCAGCTA | -0.0328
46 | AGAGCGTC | 0.052
47 | GGCGCTAC | -0.247
48 | AAAGGCGA | -0.11
49 | CGGATCGA | -0.0456
50 | ACACGGTG | -0.0679

Row | Sequence | PBM E-score
51 | ATTCAGGC | 0.0647
52 | CCAACCCA | -0.276
53 | ACGACCAT | -0.0215
54 | CCACGGTC | -0.251
55 | TCGCTGAA | 0.027
56 | CTACTTCA | -0.0578
57 | CGCACCAC | -0.143
58 | ATAAGTGG | -0.00696
59 | AACGTGCG | -0.0984
60 | CGAATTAG | 0.225
61 | GCGGACTA | 0.104
62 | GGGTATAC | 0.0534
63 | CACCTTCG | -0.0896
64 | ATACATTG | 0.159
65 | ATGTAGGC | -0.0581
66 | AGGCAACA | -0.161
67 | AGGCGGAA | 0.116
68 | GGGCGGTA | -0.245
69 | TCGCACAA | 0.00785
70 | CAAGTGCA | -0.199
71 | ATCGTATA | 0.0606
72 | AATTACAC | -0.0462
73 | ATTATAGG | 0.176
74 | AAACCAAC | -0.0285
75 | ACTGACCA | -0.00452

Row | Sequence | PBM E-score
76 | ATGGCGGC | -0.0603
77 | AAACCTAT | 0.166
78 | GCAATTAC | -0.121
79 | TAATCAAA | 0.19
80 | CAATAAGG | -0.19
81 | CCTCTACG | -0.213
82 | GCAGATCA | -0.165
83 | CCTCCGGC | -0.185
84 | ACCAGGAT | 0.116
85 | TCCTGACA | 0.255
86 | CTATATGA | 0.114
87 | ACACCAAT | 0.0822
88 | ACAACCCT | -0.04
89 | ATTTGAAA | 0.26
90 | ACCGTACG | -0.0654
91 | GGATCGAC | -0.051
92 | CCAAAGGA | -0.03
93 | ACATCAAA | 0.0756
94 | ATCCGGAT | 0.217
95 | ATGTCCAG | 0.457
96 | AGAGATGC | -0.094
97 | AGAATTTC | -0.118
98 | ATCCGGTA | 0.0578
99 | GCTTATCC | -0.0619
100 | CAATTCGA | 0.0373

Row | Sequence | PBM E-score
101 | ATGTACAG | 0.185
102 | CGACGTAG | -0.188
103 | CAGTCCAC | -0.236
104 | CCAGGTAG | -0.162
105 | CTTCAAAG | 0.0565
106 | ATCAGGAT | 0.00197
107 | ACCCTAGA | -0.0511
108 | CAGTTTTA | 0.0909
109 | ACTAAAGA | -0.0289
110 | AGTTACCC | 0.0144
111 | GACGCTGC | -0.124
112 | GCCAATGA | -0.109
113 | CTTACCGC | -0.164
114 | AGACGCAG | 0.0691
115 | ACTCAACA | 0.0625
116 | GGACCGCA | 0.0585
117 | CGTGAGGA | -0.0845
118 | CTACCAAC | 0.0696
119 | GAGGACTC | -0.078
120 | CCGTTTGC | -0.0433
121 | AACTCCTA | -0.112
122 | AGATATTG | 0.0827
123 | GTACCTGA | 0.149
124 | TATAAGCA | 0.028
125 | AAGCACTG | 0.142

Row | Sequence | PBM E-score
126 | GTAGTTCA | 0.0427
127 | CAAGGCAC | -0.165
128 | CTGTGGAC | 0.178
129 | CCCCGGGC | -0.292
130 | AGAAGTTG | 0.0264
131 | AGTGGGGG | -0.403
132 | TAATGTGA | -0.0875
133 | ATGGAGCC | -0.177
134 | CAATCCTC | -0.244
135 | ACGAATCA | 0.13
136 | CGGCCATC | -0.244
137 | AATATGCT | 0.015
138 | TGACGCAA | -0.0603
139 | AACTGCAT | 0.0756
140 | AATACTGT | 0.202
141 | AACCTGAT | -0.123
142 | CACCGGCG | -0.0464
143 | GGCAGAGA | -0.00515
144 | AATATAAG | 0.236
145 | CCAGCTTA | -0.0408
146 | AAGGGTTA | -0.193
147 | GCGCCCCC | -0.327
148 | CCGTCGAG | 0.139
149 | ATTTTGCG | -0.0384
150 | AAATAATT | 0.262

Row | Sequence | PBM E-score
151 | ACGGGGGG | -0.324
152 | AATATTCC | 0.278
153 | AATGAACC | 0.0209
154 | ACCACCGT | -0.00443
155 | CGGCGCAC | 0.106
156 | CCGAATGA | 0.162
157 | AGCCTCAC | -0.223
158 | GCTCTGTA | -0.104
159 | AGTAAAAA | 0.0285
160 | CTACGCTC | -0.183
161 | ATCTCCTC | -0.137
162 | AGTAGGGA | -0.00438
163 | CGTACGAG | -0.0311
164 | CGTTTGAA | 0.0138
165 | CTATGAAG | 0.0298
166 | AAGGTGGC | -0.0935
167 | GCGTGAAC | -0.0995
168 | ATGCGCAT | 0.299
169 | ATCGGGCG | -0.0473
170 | CGATGAGC | -0.17
171 | AATAGTAC | 0.0765
172 | ACCCGGCA | -0.0951

— the supplement of paper PMC3334620
